From the supplement of paper PMC10369915
Some of the results follow. No stated cut-off is given here; in the data, active = 3.2 or more and inactive = the rest. Only a few entries rise above the background.

Assays:
Test in all cases: enrichment score (SH2-bound / input frequency) (ratio); bacterial display of known human phosphotyrosine sites (pTyr-Var adds point mutants) read by sequencing; higher = stronger binding; tyrosines were phosphorylated by kinases first
Conditions in all cases: peptide library: pTyr-Var
SHP2 C-SH2 domain E139D = biological target: SHP2 C-SH2 domain E139D
[1] = biological target: SHP2 C-SH2 domain wild-type
SHP2 N-SH2 domain L43F = biological target: SHP2 N-SH2 domain L43F
SHP2 N-SH2 domain T42A = biological target: SHP2 N-SH2 domain T42A
SHP2 N-SH2 domain T52S = biological target: SHP2 N-SH2 domain T52S
[2] = biological target: SHP2 N-SH2 domain wild-type
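Further: displayed peptides selected on beads carrying the immobilized SH2 domain, with library peptides lacking any tyrosine serving as negative controls.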

Binder	enrichment score (SHP2 C-SH2 domain E139D)	enrichment score [1]	enrichment score (SHP2 N-SH2 domain L43F)	enrichment score (SHP2 N-SH2 domain T42A)	enrichment score (SHP2 N-SH2 domain T52S)	enrichment score [2]
FFRKFYNKSED [RYR1_Y4864]	inactive: 0.309	inactive: 0.438	inactive: 0.191	inactive: 0.424	inactive: 0.397	inactive: 0.513
AIMSFYAALIN [RYR1_Y2426_D2431N]	inactive: 2.42	inactive: 2.49	inactive: 2.43	inactive: 2.19	inactive: 2.18	inactive: 2.43
ICTVDYLLRLQ [RYR1_Y3921]	inactive: 1.25	inactive: 1.5	inactive: 1.24	inactive: 1.12	inactive: 1.14	inactive: 1.52
PYRQWYESHYA [RPS8_Y113]	inactive: 1.5	inactive: 1.18	inactive: 1.3	inactive: 1.68	inactive: 1.44	inactive: 1.2
HEKKAYAFCGT [RPS6KA3_Y226_S227A]	inactive: 0.852	inactive: 0.848	inactive: 0.87	inactive: 1.02	inactive: 0.733	inactive: 0.986
MCTVDYLLRLQ [RYR1_Y3921_I3916M]	inactive: 1.26	inactive: 1.33	inactive: 1.03	inactive: 1.16	inactive: 1.06	inactive: 1.26
HEKKAYSFCGT [RPS6KA3_Y226]	inactive: 1.03	inactive: 0.797	inactive: 0.761	inactive: 0.785	inactive: 0.587	inactive: 0.787
AIMSFYAALID [RYR1_Y2426]	inactive: 1.98	inactive: 2.11	inactive: 2.07	inactive: 1.96	inactive: 2.01	inactive: 1.85
IITVHYVLEES [RYR2_Y4559_A4556T]	active: 3.51	inactive: 2.93	inactive: 2.61	inactive: 2.82	inactive: 3.16	inactive: 2.34
AIDDKYSRREE [SART1_Y685]	inactive: 0.563	inactive: 0.565	inactive: 0.664	inactive: 0.524	inactive: 0.481	inactive: 0.476
RLNWIYYKDQT [RS1_Y165]	inactive: 1.32	inactive: 1.06	inactive: 1.15	inactive: 1.07	inactive: 1.11	inactive: 1.28
QRRLVYYEGGA [RYR1_Y245]	inactive: 0.629	inactive: 0.546	inactive: 0.522	inactive: 0.593	inactive: 0.634	inactive: 0.957
LGSNTYPFLLT [SAG_Y120]	inactive: 0.841	inactive: 0.798	inactive: 0.789	inactive: 0.854	inactive: 0.936	inactive: 1.18
QRRLVYFERGA [RYR1_Y245_G248R_YF]	inactive: 0.597	inactive: 0.38	inactive: 0.732	inactive: 0.561	inactive: 0.51	inactive: 0.617
LNCIYYKDQTG [RS1_Y166_W163C]	inactive: 1.01	inactive: 1.74	inactive: 1.26	inactive: 1.33	inactive: 1.15	inactive: 1.75
YAREGYSALPQ [SARS2_Y52]	inactive: 0.658	inactive: 0.681	inactive: 0.616	inactive: 0.481	inactive: 0.583	inactive: 0.725
TLKDVCDDGKF [RPS6KA3_Y483_Y483C_YF]	inactive: 0.636	inactive: 0.762	inactive: 0.75	inactive: 0.603	inactive: 0.827	inactive: 0.773
IGVDSYSVCKR [RPS6KA3_Y433_G431D]	inactive: 0.659	inactive: 0.674	inactive: 0.468	inactive: 0.581	inactive: 0.598	inactive: 0.704
QRRLVYYERGA [RYR1_Y245_G248R]	inactive: 0.535	inactive: 0.678	inactive: 0.76	inactive: 0.553	inactive: 0.386	inactive: 0.336

Binder	enrichment score (SHP2 C-SH2 domain E139D)	enrichment score [1]	enrichment score (SHP2 N-SH2 domain L43F)	enrichment score (SHP2 N-SH2 domain T42A)	enrichment score (SHP2 N-SH2 domain T52S)	enrichment score [2]
RLNCIYFKDQT [RS1_Y165_W163C_YF]	inactive: 1.9	inactive: 2.13	inactive: 1.57	inactive: 1.34	inactive: 1.61	inactive: 1.89
FFRKFCNKSED [RYR1_Y4864_Y4864C]	inactive: 0.54	inactive: 0.49	inactive: 0.423	inactive: 0.602	inactive: 0.684	inactive: 0.561
PFRQWYESHFA [RPS8_Y113_YF]	inactive: 2.86	inactive: 2.38	inactive: 2.95	inactive: 2.54	inactive: 2.27	inactive: 2.62
IDSTPYGQWFE [RPS8_Y109_R110G_YF]	inactive: 0.82	inactive: 0.577	inactive: 0.693	inactive: 0.766	inactive: 0.7	inactive: 0.763
FAREGYSALPQ [SARS2_Y52_YF]	inactive: 0.663	inactive: 0.746	inactive: 0.895	inactive: 0.651	inactive: 0.595	inactive: 0.884
ASLEAYCKHKF [RXRA_Y403_YF]	inactive: 0.826	inactive: 0.938	inactive: 0.766	inactive: 0.992	inactive: 1.05	inactive: 0.858
IDSTPYRQWFE [RPS8_Y109_YF]	inactive: 0.999	inactive: 0.947	inactive: 0.835	inactive: 0.726	inactive: 0.926	inactive: 1.08
RRQDLYSARDL [SART1_Y249]	inactive: 0.365	inactive: 0.236	inactive: 0.205	inactive: 0.357	inactive: 0.289	inactive: 0.313
LTFPDYLPCSV [SAG_Y129]	inactive: 0.993	inactive: 1.1	inactive: 0.902	inactive: 0.796	inactive: 0.839	inactive: 1.45
NNRVFYGNSDR [RS1_Y177]	inactive: 0.842	inactive: 0.658	inactive: 0.714	inactive: 0.765	inactive: 0.739	inactive: 0.694
DEEPPYRGPFC [SASH1_Y551]	inactive: 0.583	inactive: 0.588	inactive: 0.58	inactive: 0.397	inactive: 0.438	inactive: 0.614
DEEPPDRGPFC [SASH1_Y551_Y551D]	inactive: 0.37	inactive: 0.393	inactive: 0.391	inactive: 0.456	inactive: 0.525	inactive: 0.517
TLKDVCDDGKY [RPS6KA3_Y483_Y483C]	inactive: 0.749	inactive: 0.607	inactive: 0.651	inactive: 0.689	inactive: 0.747	inactive: 0.708
ASLEAYCKHKY [RXRA_Y403]	inactive: 1.05	inactive: 1.43	inactive: 1.14	inactive: 1.04	inactive: 1.4	inactive: 1.46
IIRQLYLKWHP [SACS_Y4333_R4331Q]	active: 3.87	active: 3.36	active: 3.43	inactive: 2.73	inactive: 3.08	active: 3.79
VSLEAYCKHKF [RXRA_Y403_A398V_YF]	inactive: 1.35	inactive: 1.52	inactive: 1.63	inactive: 1.02	inactive: 1.27	inactive: 1.76
RKRQFYLFKGK [RSPO4_Y112_C107R_YF]	inactive: 0.204	inactive: 0.861	inactive: 0.422	inactive: 0.348	inactive: 0.205	inactive: 0.197
LNWIFYKDQTG [RS1_Y166_YF]	inactive: 2.46	inactive: 2.4	inactive: 2.5	inactive: 2.32	inactive: 2.42	inactive: 2.8
